From PubChem BioAssay AID485344 (National Center for Advancing Translational Sciences (NCATS), 2010)
In all, about 340,000 compounds went through this assay and about 6,900 (2%) were called active. Rule as the data show it: active = inhibition above about 30%; inactive = below that, where a call was filed. The entries are a selection whose mix differs from that of the whole data set. The source gives no active or inactive call for entries shown without one.

These compounds were tested against D(2) dopamine receptor (Homo sapiens) (UniProt P14416) (assay: HTS Assay for Allosteric Antagonists of the Human D2 Dopamine Receptor: Primary Screen for Antagonists). Settings: HEK293 TREx D2 cells, calcium flux, dopamine EC80; at 10 µM; stronger effect = higher value.
Chain of UniProt P14416 (P14416 whole entry, looked up): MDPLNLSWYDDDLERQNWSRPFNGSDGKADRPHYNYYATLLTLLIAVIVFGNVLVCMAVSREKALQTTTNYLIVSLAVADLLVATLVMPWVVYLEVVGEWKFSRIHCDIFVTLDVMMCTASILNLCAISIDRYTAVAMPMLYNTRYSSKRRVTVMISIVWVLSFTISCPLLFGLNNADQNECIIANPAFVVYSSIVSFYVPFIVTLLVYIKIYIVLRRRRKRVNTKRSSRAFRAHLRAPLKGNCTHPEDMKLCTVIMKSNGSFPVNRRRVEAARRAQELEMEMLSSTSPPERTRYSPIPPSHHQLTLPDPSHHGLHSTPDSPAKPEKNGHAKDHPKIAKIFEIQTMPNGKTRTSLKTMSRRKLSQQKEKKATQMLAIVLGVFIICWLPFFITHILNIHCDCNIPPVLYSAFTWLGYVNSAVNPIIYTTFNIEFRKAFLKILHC
In short: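 Overnight-induced (tetracycline, 30 C) HEK293 T-REx cells carrying force-coupled D2 receive a no-wash calcium dye, then compound, then EC80 dopamine at 180 s; signals are read kinetically throughout.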
Also: 0% is about no effect.

| Compound | inhibition |
| --- | --- |
| CCCCN(CC)CCCNC(=O)CC1Nc2ccccc2NC1=O (stereo not drawn) | active: 40.5% |
| COc1cc(Cl)c(C)cc1NC(=O)Cn1cc(S(=O)(=O)N2CCN(c3ccccc3F)CC2)c2ccccc2c1=O | 8.16% |
| Cn1nc(-c2ccccc2F)c2cc(C(=O)NCc3ccc(Cl)cc3)sc21 | -4.73% |
| COc1ccc(C2=C(C(C)=O)Sc3nnc(-c4ccc(C)cc4)n3N2C(C)=O)cc1OC | -23.6% |
| COc1ccc(NC(=O)C(=O)NCCc2sc(-c3ccc(Cl)cc3)nc2C)cc1 | -4.68% |
| CC1CCc2c(sc(NC(=O)Cn3nnc(-c4ccc(C(F)(F)F)cc4)n3)c2C#N)C1 (stereo not drawn) | -5.75% |
| Cc1ccc(S(=O)(=O)N(Cc2ccccc2)Cc2ccco2)cc1 | active: 32.5% |
| COc1ccc(CC(=O)NCCc2sc(-c3ccc(Cl)cc3)nc2C)cc1OC | -25.7% |
| CC1CCN(c2cc3c(cc2F)c(=O)c(S(=O)(=O)c2cccc(Cl)c2)cn3Cc2ccccc2)CC1 | -6.84% |
| COc1ccccc1CNS(=O)(=O)c1ccc(-c2cc(C(F)(F)F)on2)s1 | 15.5% |
| COc1ccccc1C(=O)Nc1ccc(NC(=O)c2cccs2)cc1 | 11.3% |
| CCOc1ccc(S(=O)(=O)NCC(c2ccco2)S(=O)(=O)c2ccc(C)cc2)cc1 (stereo not drawn) | 20.9% |
| COc1ccc(Nc2cc(C(=O)NCCCN(C)Cc3ccccc3)c3ccccc3n2)c(OC)c1 | 10.6% |
| COc1ccccc1NC(=O)N1CCN(c2nnc(C)c3c(C)n(-c4ccc(Cl)cc4)nc23)CC1 | 7.68% |
| COc1cc(-c2nc3ccccn3c2Nc2ccccc2C)ccc1O | 26.8% |
| CCOc1ccccc1NC(=O)COC(=O)c1cn(CC)c2nc(C)ccc2c1=O | -6.1% |
| O=C(Nc1cccc(C(F)(F)F)c1)N1CCC(CN2CCCCCC2)CC1 | -0.859% |
| CN1CCCN(C(c2ccccc2)c2ccc(Cl)cc2)CC1 (stereo not drawn) | active: 81.7% |
| CCOc1ccc(NC(=O)c2ccc3c(SCC(=O)O)c4c(nc3c2)CCC4)cc1 | -2.58% |
| COc1ccc(OC)c(C2c3c(-c4ccc(Br)cc4)n[nH]c3C(=O)N2c2ccc(Cl)cc2)c1 (stereo not drawn) | 24% |
| NC(=O)C[n+]1cccc(CNC(=O)c2ccc(OC(F)F)cc2)c1 | active: 31.7% |
| CCOC(=O)c1c(Nc2cccc(C(=O)OC)c2)nnc(-c2ccccc2)c1-c1ccccc1 | 28.2% |
| CCOc1ccccc1-c1noc(CSc2nnc(-c3ccccc3)n2-c2cccc(C)c2)n1 | -3.66% |
| OCc1ccccc1OCCCN1CCC(Cc2ccccc2)CC1 | active: 40.5% |

| Compound | inhibition |
| --- | --- |
| CC(C)NC(=O)C1CCC(Cn2c(=O)c3sccc3n(CC(=O)Nc3ccccc3)c2=O)CC1 (stereo not drawn) | 2.98% |
| CCOC(=O)c1c(C)n(-c2ccccc2)c2ccc(OC(=O)c3cccc(Cl)c3)cc12 | 4.97% |
| Cc1ccccc1C(=O)Nc1nc(-c2ccc(Br)cc2)ns1 | 11.8% |
| COc1ccc(-c2csc3nc(-c4ccccc4)oc(=O)c23)cc1OC | -13.9% |
| CCOC(=O)c1ccc(CN(Cc2ccccc2)S(=O)(=O)c2ccc(Cl)cc2)cc1 | -9.29% |
| Cc1cccc(-c2nc(CSc3nncn4c3cc3sccc34)c(C)o2)c1 | -7.4% |
| CC(C)Oc1ccc(CNC(=O)C2CCN(C(=O)N3CC(C)Oc4ccccc43)CC2)cc1 (stereo not drawn) | 10.6% |
| CC(=O)c1cc(-c2ccccc2)n(CC(=O)NCCc2ccc(C)cc2)c1C | -0.751% |
| FC(F)(F)c1cc(-c2cccc(Br)c2)nc2ncnn12 | 4.11% |
| CCOC(=O)c1cnc2ccc(OCC)cc2c1N1CCN(c2ccccc2F)CC1 | 3.58% |
| CCOC(=O)C1CCC(CN(Cc2ccc(OC)cc2)S(=O)(=O)c2ccc(F)c(C(=O)Nc3cc(C)ccc3C)c2)CC1 (stereo not drawn) | -13.4% |
| Cc1nc(N2CCCC2)c2c(C(=O)Nc3ccc(Br)cc3F)c(C)oc2n1 | 3.02% |
| CCN(CC)CCCNC(=O)CSc1nc(-c2ccc(OC)cc2)cc(C(F)(F)F)n1 | 3.06% |
| Oc1c(C(c2ccccc2Cl)N2CCN(Cc3ccccc3)CC2)sc2nc(-c3ccco3)nn12 (stereo not drawn) | 27.9% |
| CCc1ccc(NC(=O)CSc2ccc(-c3cccs3)nn2)cc1 | -13.5% |
| Cc1noc(Cn2c(=O)c3cc4c(cc3n(CC(=O)Nc3ccccc3F)c2=O)OCO4)n1 | 4.62% |
| Cc1ccc(Cl)cc1NC(=O)CCn1c(=O)c2cccn2c2cccnc21 | -4.26% |
| CCOc1ccc2nc(N3CCC(C(=O)Nc4cc(C)ccc4C)CC3)sc2c1 | -4.79% |
| CCOC(=O)C1(CC2CC2)CCN(Cc2cnc(N(C)C)s2)CC1 | active: 67.8% |
| Cc1ccc(NC(=O)Cn2cc3c(n2)CCCC3)c(C)c1 | 13.6% |
| O=C(NC1CCCCC1)c1ccc(CSc2nc3ccncc3n2Cc2ccccc2F)cc1 | -8.47% |
| COc1ccc(NC(=O)CSc2nc(-c3cccs3)cc(C(F)(F)F)n2)c(OC)c1 | -10.1% |
| CC(=O)NC(CC(=O)NC(C)c1ccc(Cl)cc1Cl)c1ccccc1 (stereo not drawn) | active: 34.4% |
| COCCCNC(=O)c1ccc2c(c1)nc1n2CCCCC1 | -9.41% |
